Consider 22 molecules from article PMC12136788.

Some of the results follow.

To fix the notation:
B1: chr1:39494447:39494448:+_ENSG00000168653_ENST00000372967|hu_hu|motif|central (ssRNA)
RNA: GGGAGUUCUACAGUCCGACGAUCGCAUCGACCAGCCAUCUUGUAGGGCUGUUCACCACUCUGGAUUGUCAACCAUCGAUCGGUGUUAAGGCCGAACCUUUUCUGGAUGUCCAAGAAAGGCAUGGCCGAUGCUCGUGCCCUUGACAACAGAGGAUUGAGCAUCA
B2: chr3:95749504:95749505:+_ENSMUSG00000015749_ENSMUST00000165307|mus_hu|motif|central (ssRNA)
RNA: GGGAGUUCUACAGUCCGACGAUCUAUUAUAGCAAACUGUAAUUUCAGUUAAUUUAUAAAUAAGGAAUGAAAUGCACCAUACGGCACCUGUGUAAAAGUGAUCAUGUUUUAAUUAUGGGCUAAAAAUGACUAAUACAGUAAGCUCAACAGAGGAUUGAGCAUCA
B3: chr5:144935201:144935202:+_ENSMUSG00000038970_ENSMUST00000041804|mus_mus|motif|central (ssRNA)
RNA: GGGAGUUCUACAGUCCGACGAUCCAUUAGAUCAAAUAUUUUUUGGUGACUGGGCAGGUCAUCUGCUUUGUCAAGGUCACGGAAUAGGUUGAAAGGGCUCCCAGGGAUGCUGGUAGCACGUGAGUCCUCGGUAGAGCUGGCUUCCAACAGAGGAUUGAGCAUCA
B4: chr8:13147844:13147845:+_ENSMUSG00000031446_ENSMUST00000016680|mus_mus|motif|central (ssRNA)
RNA: GGGAGUUCUACAGUCCGACGAUCAAUAUUAACAAUUUGUAGACACAAUGAACUUAAAAAUAAGAAGUAGAAAUAGAAAUCGGUUUGGUCUUUCAGAGACCACAUCAUAGAACUCAUAAAUGAAAAUGUACAAAUAUAGAAAUGCAACAGAGGAUUGAGCAUCA
B5: chr11:100882373:100882374:+_ENSMUSG00000019302_ENSMUST00000044721|mus_mus|mus_mus_mus_hu_True|48_68 (ssRNA)
RNA: GGGAGUUCUACAGUCCGACGAUCUUCCUGGUUUGUGUUGAUUUCCUUCAGUUCAUUUUCAAUCUUCUCGAAAUUGGCCUCUAAGUCGAUCAUGUCCCGGGGGAAGGGAACCUCUGGGUUUUCACCGGUGUCCAUAAUCGGAAUCAACAGAGGAUUGAGCAUCA
B6: chr10:33190432:33190433:-_ENSG00000150093_ENST00000302278|hu_mus|hu_hu_hu_mus_True|18_18 (ssRNA)
RNA: GGGAGUUCUACAGUCCGACGAUCUACAUUUUCCAAACCUGCAUGUGAAUAAAACCCUGGCCACAGAGCCCCAAAACUACCCUACUGUGACUAAGAUGCUGCUGCUGUGAGCUUGGUUGUUGUGGGACCGCCUGAGUAGGAUUCCAACAGAGGAUUGAGCAUCA
B7: 99831459_99835722_1545_CDS_ENSMUSG00000023025_ENSMUST00000100206|mouse|control|control (ssRNA)
RNA: GGGAGUUCUACAGUCCGACGAUCAUCAAACUUCGGAGUUGGAGCCUUGGCUUCAGUUGCUGCAGGUUGGGGUCUUGGGAUCCUGUCAUCAUCCCUUCGCCUUCGGCCUCUGAAGAGAGUUCGCCUGCCUCUUCCAAAGUCCCCCAACAGAGGAUUGAGCAUCA
B8: 81440336_81440456_2144_CDS_ENSMUSG00000049106_ENSMUST00000054145|mouse|control|control (ssRNA)
RNA: GGGAGUUCUACAGUCCGACGAUCGAGCCAUUUGUAAGCUUUGUAAAUCUUACGCUCAACUGAUUCCAUGUUGGCGGCUGGUGGUGCCCGGCUUGGCUGAACAUCCAGAGUGGAAGCGCUCCGCUCAGGGGAGGAGUCUGGGGACAACAGAGGAUUGAGCAUCA
B9: chr4:48381769:48381770:+_ENSG00000109171_ENST00000512093|hu_mus|FALSE|FALSE (ssRNA)
RNA: GGGAGUUCUACAGUCCGACGAUCCUUAUAGUUGGAUCCAAUUGAAUCUUCAUCUAAUUCUGAAGCACUUAACUCACUAUCUAUAGAGGACUGAGGGCUGAGUGGAGGGUUUCUAUCUGAUGAACUUUUGAAGUUACCUGAAUUCAACAGAGGAUUGAGCAUCA
B10: chr2:157388114:157388115:+_ENSMUSG00000067786_ENSMUST00000109526|mus_hu|motif|central (ssRNA)
RNA: GGGAGUUCUACAGUCCGACGAUCUUGUAGAGGUGGUCCCUGUCCUCCAGGAGCUUACAAUCUAGCUGGGGAGACACAACGGAUGCACACUUAAACAAUCAGUACAAUUAGCGAUUACCACAAUAUUGACCACAACUGCAUGAGCAACAGAGGAUUGAGCAUCA
B11: chr10:88205819:88205820:+_ENSMUSG00000060904_ENSMUST00000116234|mus_mus|motif|central (ssRNA)
RNA: GGGAGUUCUACAGUCCGACGAUCGUUGGCUCACAGGCGCUGACGUGAAUGGGCUCACUGUCUGCUUUUCAGGGUUUCAACGGACCAUUCCAUUGCCUCAUCAAGGCCAGUGCCUUUGGUUGCUGAAGUUUUAAAGAUCUGCCACAACAGAGGAUUGAGCAUCA
B12: chr16:94651144:94651145:+_ENSMUSG00000040785_ENSMUST00000117648|mus_hu|mus_mus_mus_hu_True|58_68 (ssRNA)
RNA: GGGAGUUCUACAGUCCGACGAUCAUUUUCUUGAAUCAAGUGGCGAAUAACAUAGUCCACUGCUUCAUGGACAAAAUUUUUGCUAGAAAAACAGGUUGUAUAGUCUUCUGUGCUCAAAACUUUCCAAGAAAGCAAUUCUUUGAGCAACAGAGGAUUGAGCAUCA
B13: chr19:55172049:55172050:-_ENSMUSG00000024978_ENSMUST00000061856|mus_hu|motif|central (ssRNA)
RNA: GGGAGUUCUACAGUCCGACGAUCUGUGUGCUUACAUCGACCAACACUGUAUUCUGAUGAAUGUGGCAGAUAAGAAACAUCGGUUGUACCAAGGGUCAGUGCAGAUUCAUCCAUGUCACAAAGUGUAAUUCCCAAAUCAUGUGCCAACAGAGGAUUGAGCAUCA
B14: chr7:135612270:135612271:-_ENSG00000105887_ENST00000393085|hu_mus|hu_hu_hu_mus_False|28_88 (ssRNA)
RNA: GGGAGUUCUACAGUCCGACGAUCGUUUUUUUCUGAGAUGUUAAAUAUUCAGUGGAGGGAAAACAAAACUUAACCUUUUAUUAAUGCGUGUUGUACCAAAAGCAGACCAUGGUUUUACAUUUAUUCAAAAAUAUUAACAUUAAGCAACAGAGGAUUGAGCAUCA
B15: chr6:38652254:38652255:-_ENSG00000124767_ENST00000373365|hu_hu|hu_hu_hu_mus_False|78_78 (ssRNA)
RNA: GGGAGUUCUACAGUCCGACGAUCCGAGAACUUCAUAGCAGGGAAGUCAAGCUUCUGGAUUAGCGUCAGUCCAAGAACCCUCGUAUAAAAAUCCAGGGACUUCUUAGGAUCCUUAAUUCUUAGCAUCGUUUGCUGCAGUAGAAACAACAGAGGAUUGAGCAUCA
B16: chr18:48606039:48606040:+_ENSG00000141646_ENST00000342988|hu_mus|motif|central (ssRNA)
RNA: GGGAGUUCUACAGUCCGACGAUCAGUAUACAUGUGUGUCUGUGGUACAGUCAAUGUGUCUUAACUCCUCCACUUCAAUCUCGGCAAAGUCACCGCCAAGUGAUCAAGGAUGGCAAACACAGGGCUUAUAACCAAAAGGUAUAACAACAGAGGAUUGAGCAUCA
B17: chr17:29226239:29226240:-_ENSG00000172171_ENST00000306049|hu_hu|FALSE|FALSE (ssRNA)
RNA: GGGAGUUCUACAGUCCGACGAUCUAAUUAUACUUUAGCACGUUAACCUCAGAAUUCUAAGGCUGAGAGUCAAACACUGCUAAUUCAUAGAAGGCAAUAGCUUGUAAUAAUGAAUCAUAAAGCUCUUCUACUCUUUGUAGUUCACAACAGAGGAUUGAGCAUCA
B18: chr9:14812383:14812384:-_ENSMUSG00000031934_ENSMUST00000164273|mus_mus|mus_mus_mus_hu_True|78_78 (ssRNA)
RNA: GGGAGUUCUACAGUCCGACGAUCAUAGCCCAGGUAGAUACACGCUAACAGUAUAAUCACAAAUGUCAGCAGGCGGCAGCUAAUGUACUUGAUGAUUAAAUUAUUAGAAUUUUUCUUUGUCUUCAAGUACUGCUCCACAAUUGGCAACAGAGGAUUGAGCAUCA
B19: 31664629_31664749_1412_3pUTR_ENSG00000169926_ENST00000307145|human|control|control (ssRNA)
RNA: GGGAGUUCUACAGUCCGACGAUCGAAAGGGGGUUCAACAACGCUGAAUCUCAACUUUGUGGGUGUAUCUAUUGUGCAAUUUGGUGGGUGGUGUUUUUUGAAAUUUUUGUGUUUUUUUUGUUUUUUUAACAAAUUUACUUUGACCAACAGAGGAUUGAGCAUCA
B20: chr6:122779733:122779734:-_ENSG00000111897_ENST00000339697|hu_hu|FALSE|FALSE (ssRNA)
RNA: GGGAGUUCUACAGUCCGACGAUCCAACAUUACACAAGCUACACAUACUCCAACAAGCAAGAAAAGUGCAUAGAUCAAUCUAGUUACAGUGGAGUUGUUUCCACUAGGACAGCAUCGGCAUAGCAAACACGGGGCACUUCCACACAACAGAGGAUUGAGCAUCA
B21: 31410937_31421441_3780_CDS_ENSG00000113360_ENST00000513349|human|control|control (ssRNA)
RNA: GGGAGUUCUACAGUCCGACGAUCCAGCUCCUCCGCUACCUUGGCCUGAGUUCUAUUAUUCACCAAAGAGCUUCGCAACAAAGUUAAGUGUCCUUCAUGAUGAUCUGGGAAAUGAAUGAAUAAGUACUCUGUGGCUACCAGUUGCAACAGAGGAUUGAGCAUCA
B22: chr7:118218646:118218647:-_ENSMUSG00000005610_ENSMUST00000162415|mus_hu|FALSE|FALSE (ssRNA)
RNA: GGGAGUUCUACAGUCCGACGAUCUUCCUGUUUGAGUAAACUGAUCAAAGAACUUGCUUUUUCUUUAUCUUCAUCGCUUCUAUCUAGUGACAGGAUGAUUACUUUGCUUAACAUCUCAGGAAGAAAGUGUUUAGGAGCCCUCAUCAACAGAGGAUUGAGCAUCA

The target in this assay is T1, UNK ZnF1-3 (human, UniProt Q9C0B0 31-174).
T1 sequence: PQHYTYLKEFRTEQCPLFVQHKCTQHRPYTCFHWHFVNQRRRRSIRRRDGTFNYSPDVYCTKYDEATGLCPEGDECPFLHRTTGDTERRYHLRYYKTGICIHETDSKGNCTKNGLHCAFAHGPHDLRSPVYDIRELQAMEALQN
Nature of the assay: nsRBNS (natural sequence RNA bind-n-seq); RBNS binding buffer (assumed for nsRBNS): 25 mM Tris pH 7.5, 150 mM KCl, 3 mM MgCl2, 0.01% Triton X-100, 500 ug/ml BSA, 20 U/ml SUPERase-In, 4 C; UNK is unkempt and MSI1 is Musashi-1; names of the RNAs are library labels; protein concentration not given here; high values mean tight binding.
B1: the binding signal was found to be 0.49 enrichment R.
As to B2, the binding signal was 1.31 enrichment R.
As to B3, the binding signal was determined as 0.917 enrichment R.
For the molecule B4, the binding signal is 1.56 enrichment R.
B5 had a binding signal of 0.595 enrichment R.
Then B6, with 1.27 enrichment R.
For B7, the binding signal worked out at 0.763 enrichment R.
With B8 the figure was 1.07 enrichment R; with B9, 1.21 enrichment R; with B10, 1.58 enrichment R.
With B11 the figure was 0.473 enrichment R; with B12, 0.463 enrichment R; with B13, 1.86 enrichment R.
Molecule B14 came in with a binding signal of 1.86 enrichment R.
With B15 the figure was 1.18 enrichment R; with B16, 1.03 enrichment R; with B17, 0.881 enrichment R.
Then B18, with 1.55 enrichment R.
B19 displayed a binding signal of 0.95 enrichment R.
As to B20, the binding signal worked out at 1.74 enrichment R.
Then B21, with 1.39 enrichment R; and B22, with 0.868 enrichment R.
